# Data reported in PubChem BioAssay AID1508642 (National Center for Advancing Translational Sciences (NCATS), 2021).
# Screen size: about 43,000 compounds; about 200 (0.47%) were called active. Not shown: some 12% with an inconclusive outcome. Calls come from the whole dose curve; as a rule, active = well fitted cell-killing curve with a large enough effect; inconclusive = small, poorly fitted or top-dose-only effect, or effect the other way; inactive = flat fitted curve, though single readings scatter. This is one part of the list.
# Test: Cell viability qHTS assay in S16 Pmp22-F2sN cells; note: nearly all actives have a fitted effect of over 65% in size
# Conditions: S16 Pmp22-F2sN Schwann cells (luciferase reporters placed in the Pmp22 gene) viability, CellTiter-Glo, 24 h; series mostly up to 57.5 µM; activity change, negative = cytotoxicity: at the top concentration
# Method in brief: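 Luminescence from CellTiter-Glo, read by CCD camera after a 15 min room-temperature incubation, served as the viability signal. Reporter Schwann cells (S16 Pmp22-F2sN) had been treated with pin-transferred compounds for 24 h at 37C.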
# % is set by controls: 0 for no effect and ±100 for the full control effect; potency is the fitted concentration of half-maximal effect.
Structure (SMILES),"activity change, negative = cytotoxicity",Potency
Cc1cc(C(=O)NCCc2ccc(Cl)cc2)c2c(C)nn(-c3cccc(F)c3)c2n1,inactive: 3.25%,
CC1CCCN(c2cc3c(cc2F)c(=O)c(S(=O)(=O)c2cccc(Cl)c2)cn3C)C1 (stereo not drawn),inactive: 23.2%,
O=C(NC1CCCCC1)c1c[nH]c2ccc(S(=O)(=O)Nc3ccccc3F)cc2c1=O,inactive: -11%,
CC(C)(C)c1ccc(C(=O)NC(Cc2c[nH]c3ccccc23)C(=O)OCC(=O)c2ccccc2)cc1 (stereo not drawn),inactive: 9.39%,
CCOC(=O)c1ccc(NC(=O)c2c(NCc3sccc3C)sc3c2CCCCC3)cc1,inactive: 16.7%,
Cn1cc(C(=O)NCc2ccc(Cl)cc2)c(=O)c2cc(S(=O)(=O)N3CCCCCC3)ccc21,inactive: -2.83%,
COc1ccc(S(=O)(=O)N(CC(=O)N(C)Cc2ccccc2)c2ccc(Cl)cc2)cc1,inactive: 25.9%,
Cc1cccc(OCC(=O)Nc2ccc(-c3nc4cc(C)ccc4o3)c(O)c2)c1,inactive: -0.51%,
COc1ccc(NC(=O)CSc2nnc(NC(=O)Nc3ccccc3)s2)c(OC)c1,inactive: 0.19%,
CCc1ccc(NC(=O)CSc2nc3ccccc3nc2Cc2ccccc2OC)cc1,inactive: -4.41%,
N#Cc1cccc(NC(=O)CCNS(=O)(=O)c2ccc3c(c2)CCN3C(=O)C2CC2)c1,inactive: 0.0052%,
Cc1ccc(-n2nnnc2CNC(=O)c2ccccc2C)cc1C,inactive: -9.6%,
Cc1ccc2c(c1)C(c1ccc(F)cc1)N(C(=O)c1cccc(C(F)(F)F)c1)CC(=O)N2 (stereo not drawn),inactive: -9.48%,
COc1cccc(N2CCN(Cc3cc(=O)oc4cc(C)ccc34)CC2)c1,inactive: 8%,
Cc1cc(C)cc(-n2ccnc2SCC(=O)Nc2nc3ccc(C)cc3s2)c1,inactive: 3.39%,
CN(C)c1ccc(CNC(=O)Cn2ccc3cc(S(=O)(=O)N4CCCCCC4)ccc32)cc1,inactive: -13%,
COc1ccc(-c2nc(Cn3c(=O)cc(C)c4c(C)nn(-c5ccccc5)c43)c(C)o2)c(OC)c1,inactive: 9.69%,
CCOC(=O)c1c(C)[nH]c(CCC(=O)NCCCN2CCN(c3ccccc3F)CC2)c1C,inactive: -0.512%,
O=C(Nc1nnc(S(=O)(=O)N2CCc3ccccc32)s1)c1ccccc1Cl,inactive: -1.72%,
Cc1c2cnn(CC(=O)N3CCN(c4ccc(F)cc4)CC3)c(=O)c2c(C)n1Cc1ccccc1F,inactive: -20.2%,
Cc1ccc2c(CC(=O)N(Cc3cccc(Cl)c3)C3CCS(=O)(=O)C3)coc2c1 (stereo not drawn),inactive: -0.196%,
CNS(=O)(=O)c1cn(CC(=O)N2CCN(c3ccccc3OC)CC2)cc1S(=O)(=O)NC,inactive: 13.4%,
CCOC(=O)C1CCCN(C(=O)c2ccc(NC(=O)c3nsc4ccccc34)cc2)C1 (stereo not drawn),inactive: -10.3%,
COC(=O)c1ccccc1NC(=O)Cn1c(=O)cc(C)c2c(C)nn(-c3cccc(Cl)c3C)c21,inactive: -2.92%,

Structure (SMILES),"activity change, negative = cytotoxicity",Potency
O=C(CCn1cnc2onc(-c3ccc(F)cc3)c2c1=O)N1CCN(c2ccccc2F)CC1,inactive: -9.95%,
O=C(CC1Nc2cccc3cccc(c23)NC1=O)Nc1ccc(F)cc1 (stereo not drawn),inactive: -27.5%,
CS(=O)(=O)N1CCc2cc(C(=O)Nc3ccc(S(N)(=O)=O)cc3)ccc21,inactive: 1.55%,
COc1cccc(Nc2sc(C(=O)c3ccc(Cl)cc3)c(N)c2C(=O)NCCc2ccc(OC)c(OC)c2)c1,inactive: -4.71%,
CCCN(Cc1cccs1)C(=O)Nc1ccc(F)c(Cl)c1,inactive: 2.39%,
COc1cc(Cl)c(NC(=O)C(NS(=O)(=O)c2cccs2)C(C)C)c(OC)c1 (stereo not drawn),inactive: -2.2%,
Cc1ccc(-n2ncc(C(=O)NCCCN3CCN(C)CC3)c2C2CCN(C(=O)OC(C)(C)C)CC2)c(C)c1,inactive: 9.8%,
CC(C)(C)OC(=O)N1CCC(c2c(C(=O)N3CCCCC3)cnn2-c2ccc(F)cc2F)CC1,inactive: -1.57%,
Cn1c(Oc2ccccc2)nc2c1c(=O)n(Cc1ccc(Cl)cc1Cl)c(=O)n2C,inactive: 1.05%,
CCCSc1nnc2n(-c3cccc(C)c3)c(=O)c3c4c(sc3n12)CCCC4,inactive: -11.8%,
Cc1ccc(C)c(NC(=O)Cn2c(=O)n(Cc3ccc4c(c3)OCO4)c(=O)c3ccccc32)c1,inactive: 17%,
CCC1CN(C(=O)N2CCC(C(=O)NCc3ccco3)CC2)c2ccccc2O1 (stereo not drawn),inactive: 5.17%,
Cc1ccc(-n2c(SCC(=O)Nc3c(C)cccc3C)nc(O)c(C)c2=O)cc1,inactive: 0.392%,
COCCNC(=O)C(=O)NCC(c1cccnc1)N1CCN(c2ccccc2)CC1 (stereo not drawn),inactive: -0.196%,
O=C(Cc1ccc(Cl)cc1)Nc1ccc2nn(-c3ccccc3)nc2c1,inactive: 20%,
CC(C)CCNc1ncnc2c1cnn2-c1cccc(Cl)c1,inactive: 8.73%,
Cc1ccccc1C(c1c(C)n(C)n(-c2ccccc2)c1=O)c1c(C)n(C)n(-c2ccccc2)c1=O,inactive: 7.07%,
CCS(=O)(=O)c1ncc(Cl)c(C(=O)N(Cc2ccccc2)c2ccc(OC)cc2)n1,,active: 4.47 µM
Cc1ccc(-n2ncc3c(=O)n(Cc4ccccc4C)cnc32)cc1C,inactive: -0.506%,
Cc1cc(C)c(CN2C(=O)c3ccccc3S(=O)(=O)c3ccc(C(=O)OCC4CCCO4)cc32)c(C)c1 (stereo not drawn),inactive: 1.02%,
CC(C)c1ccc(NC(=O)Cn2c(=O)n(Cc3nc(-c4ccccc4)no3)c(=O)c3cc4c(cc32)OCO4)cc1,inactive: 1.64%,
CC(=O)c1cccc(NC(=O)N2CCC(CN3CCCCC3)CC2)c1,inactive: 6.2%,
CCOC(=O)c1ccc(NC(=O)c2cc3c([nH]c2=O)CC(c2ccccc2)CC3=O)cc1 (stereo not drawn),inactive: -14.1%,
CCn1c(=O)c2sccc2n2c(CCCC(=O)Nc3ccc(OC)c(OC)c3)nnc12,inactive: 17%,

Structure (SMILES),"activity change, negative = cytotoxicity",Potency
Cc1cc(C)n(C(C)CC(=O)Nc2ccc(C)c(F)c2)n1 (stereo not drawn),inactive: -3.43%,
Cc1ccccc1Cn1c(SCc2ccc(C(=O)NCCc3ccccc3)cc2)nc2ccncc21,inactive: -29.4%,
CSc1ncc(Cl)c(C(=O)N(Cc2ccc(C(C)C)cc2)C2CCS(=O)(=O)C2)n1 (stereo not drawn),inactive: -6.91%,
COc1ccc(-n2cc(-c3ccc4c(c3)OCO4)n(CC(=O)Nc3cccc(C)c3)c2=O)cc1,inactive: -12.4%,
CCCCC1CCC(CCCC(C)CCC(=O)O)CC1 (stereo not drawn),inactive: 11.1%,
COc1cccc(-c2n[nH]c3c2C(c2ccccn2)N(C)C3=O)c1 (stereo not drawn),inactive: 11.2%,
O=C(CC1N=C2c3ccccc3N=C(SCC(=O)Nc3ccc(F)cc3)N2C1=O)NCc1ccc2c(c1)OCO2 (stereo not drawn),inactive: -4.53%,
Cc1cccc(NC(=O)Cn2cc(S(=O)(=O)Cc3ccccc3Cl)c3ccccc32)c1,inactive: -5.13%,
Cc1noc(Cn2c(=O)c3ccccc3n(CC(=O)Nc3ccc(C(C)C)cc3)c2=O)n1,inactive: -11.6%,
CCn1cc(S(=O)(=O)c2ccc(C)cc2C)c(=O)c2cc(F)c(N3CCCCC3)cc21,inactive: -13.4%,
CCOc1ccc(NC(=O)CN2CCSc3ccc(S(=O)(=O)N4CCCC4)cc32)cc1,inactive: 0.607%,
CCN(CC)c1cc2c(cc1F)c(=O)c(S(=O)(=O)c1ccccc1)cn2C,inactive: -23.9%,
COC(=O)c1c(NC(=O)/C=C/c2ccc(OC)c(OC)c2)sc2c1CCC2,inactive: 5.21%,
Cc1cc(C)cc(N(CC(=O)NCc2ccccc2Cl)S(=O)(=O)c2c(C)[nH]c(=O)[nH]c2=O)c1,inactive: 1.18%,
CCc1ccccc1NS(=O)(=O)c1cc(Br)cc2c1N(C(=O)C1CC1)CC2,inactive: 9.37%,
CCOC(=O)Cn1c(=O)n(CC2CCCO2)c2nc(-c3c(F)cccc3Cl)nc(C(N)=O)c21 (stereo not drawn),inactive: -1.38%,
CC(Nc1oc(-c2ccc(COc3ccc(Cl)cc3)o2)nc1C#N)c1ccccc1 (stereo not drawn),inactive: 4.37%,
CCN(CC)CCCNC(=O)CN1C(=O)COc2ccc(S(=O)(=O)N3CCC(C)CC3)cc21,inactive: 10.5%,
CCN(CC)c1ccc(NC(=O)CN2C(=O)c3cccnc3Oc3ccc(Cl)cc32)c(C)c1,inactive: -7.14%,
COCCNC(=O)CSc1nnc2[nH]c(=O)cc(C)n12,inactive: -5.08%,
O=C(NCc1ccccc1)c1ccc2c(c1)nc1n2CCOC1,inactive: 13.6%,
CCC(=O)Nc1cc2nn(-c3ccc(C)cc3)nc2cc1C,inactive: 0.938%,
Cc1ccc(NC(=O)[C@@H](c2ccccc2)N2Cc3ccccc3C2=O)cc1F,inactive: 0.297%,
Cc1c(C(=O)NCc2ccc(F)cc2)sc2nc(-c3ccc(F)cc3)cn12,inactive: -21.5%,

Structure (SMILES),"activity change, negative = cytotoxicity",Potency
O=C(CSc1ncc2c(n1)-c1ccc(Cl)cc1N(Cc1ccccc1)S2(=O)=O)Nc1ccccc1C(F)(F)F,inactive: -8.27%,
CCOC(=O)Cn1c(=O)n(CC2CCCO2)c2nc(-c3ccc(CC)cc3)nc(C(N)=O)c21 (stereo not drawn),inactive: 0.936%,
COc1ccc(CCNC(=O)Cn2c(=O)c3cccn3c3ccccc32)cc1OC,inactive: 12.6%,
CCCc1nn2c(=O)cc(COC(=O)c3ccco3)nc2s1,inactive: 5.17%,
Cc1ccccc1CN1C(=O)c2ccccc2S(=O)c2ccc(C(=O)NCc3ccc4c(c3)OCO4)cc21 (stereo not drawn),inactive: -8.8%,
COc1cccc(CNC(=O)CCC(=O)N2CC(C)Sc3ccccc32)c1 (stereo not drawn),inactive: 0.501%,
COc1ccc(CNC(=O)C(=O)Nc2cc(Cl)ccc2OC)cc1,inactive: 10.5%,
COc1ccc(N2CCN(S(=O)(=O)CCNC(=O)c3c(F)cccc3Cl)CC2)cc1,inactive: -3.09%,
CC(=O)Nc1cc(C(=O)Nc2ccc3c(c2)N(C)C(=O)c2ccccc2S3)ccc1C,inactive: 2.88%,
CCCN(CCC)C(=O)C1CCCN(c2ncnc3c2nc2n3CCCCC2)C1 (stereo not drawn),inactive: -10.4%,
Cc1ccccc1CNC(=O)c1ccc(CN2CC(=O)N3CCCCC3C2=O)cc1 (stereo not drawn),inactive: 1.47%,
Cc1nc2c(c(C)nn2C(C)(C)C)c(C)c1CCC(=O)Nc1ccc(Br)cc1Br,inactive: 20.8%,
Cc1ccc(NS(=O)(=O)c2c(C)nc3sc(C)cn3c2=O)c(C)c1,inactive: -22.9%,
Cc1cccn2c(=O)c(C(=O)NCCc3ccc(Cl)cc3)cnc12,inactive: -3.3%,
CC(=O)c1ccc(NC(=O)C2CCC(CNS(=O)(=O)c3cccc4nsnc34)CC2)cc1 (stereo not drawn),inactive: 3.64%,
CCc1ccccc1N1C(=O)N(Cc2cccc(Cl)c2)c2ccccc2S1(=O)=O,inactive: 1.21%,
CCCNS(=O)(=O)c1cc(-c2nnc3c4ccccc4c(C)nn23)ccc1OC,inactive: 3.28%,
CC(C)(C)OC(=O)N1CCC(c2c(C(=O)N3CCN(C(=O)c4ccco4)CC3)cnn2-c2ccc(Cl)cc2)CC1,inactive: 5.81%,
Cc1ccc(Cl)cc1NC(=O)c1cccc(NC(=O)N2CCSc3ncccc32)c1,inactive: -4.84%,
CCOc1ccc(NC(=O)C2CCCN(c3nnc(-n4c(C)ccc4C)s3)C2)cc1 (stereo not drawn),inactive: 15.5%,
CCc1ccc(NCc2cc3ccc(OC)cc3n(CC(=O)Nc3cccc(Cl)c3C)c2=O)cc1,inactive: 16.4%,
